The results in this text go back to ChEMBL document CHEMBL1961873, “Compounds: GSK PKIS; Assays: Nanosyn kinase panel” (2012).

For part of these data: Most of the strong results are listed elsewhere, so they are rarer here than in the full data. This is a selection; strong and weak results do not stand in their true shares.

The target of experiment [1] is RAC-alpha serine/threonine-protein kinase (Homo sapiens) (UniProt P31749). The settings on record: at 0.1 µM.
Experiment [2] shares this target. The settings on record: at 1 µM.
For experiment [3], the target named is RAC-beta serine/threonine-protein kinase (Homo sapiens) (UniProt P31751). The settings on record: at 0.1 µM.
Sequence of UniProt P31751 (P31751 whole entry): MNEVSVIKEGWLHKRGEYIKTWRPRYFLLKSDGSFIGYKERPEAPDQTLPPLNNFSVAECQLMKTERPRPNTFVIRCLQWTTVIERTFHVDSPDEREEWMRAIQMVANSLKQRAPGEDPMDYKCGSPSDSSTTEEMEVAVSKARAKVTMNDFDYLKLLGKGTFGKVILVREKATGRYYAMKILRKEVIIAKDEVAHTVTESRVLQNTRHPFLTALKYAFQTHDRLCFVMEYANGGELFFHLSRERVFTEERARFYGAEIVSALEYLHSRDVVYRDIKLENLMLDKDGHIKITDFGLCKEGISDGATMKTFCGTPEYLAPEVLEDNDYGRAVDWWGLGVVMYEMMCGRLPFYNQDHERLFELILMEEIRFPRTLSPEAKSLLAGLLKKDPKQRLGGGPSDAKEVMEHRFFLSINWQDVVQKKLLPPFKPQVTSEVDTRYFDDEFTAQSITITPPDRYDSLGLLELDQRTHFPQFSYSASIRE
Experiment [4] has the same target. The settings on record: at 1 µM.
In experiment [5] the target is RAC-gamma serine/threonine-protein kinase (Homo sapiens) (UniProt Q9Y243). The note with it: at 0.1 µM.
Sequence of UniProt Q9Y243 (Q9Y243 whole entry): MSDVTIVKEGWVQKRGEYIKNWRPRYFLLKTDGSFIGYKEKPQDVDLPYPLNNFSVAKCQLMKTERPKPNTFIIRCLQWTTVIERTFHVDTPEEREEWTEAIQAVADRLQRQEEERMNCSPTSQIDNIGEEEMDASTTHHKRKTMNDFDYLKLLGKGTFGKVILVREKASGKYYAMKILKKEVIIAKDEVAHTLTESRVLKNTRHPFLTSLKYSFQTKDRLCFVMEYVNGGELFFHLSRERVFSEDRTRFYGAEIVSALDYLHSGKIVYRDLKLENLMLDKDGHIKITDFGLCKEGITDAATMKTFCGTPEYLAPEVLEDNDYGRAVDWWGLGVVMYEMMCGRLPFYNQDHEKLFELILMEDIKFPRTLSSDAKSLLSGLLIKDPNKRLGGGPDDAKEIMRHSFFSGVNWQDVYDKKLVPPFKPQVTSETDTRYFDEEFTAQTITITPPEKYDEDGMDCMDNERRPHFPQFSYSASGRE
For experiment [6] the target is unchanged. The settings on record: at 1 µM.
For experiment [7], the target named is G protein-coupled receptor kinase 6 (Homo sapiens) (UniProt P43250). The note with it: at 0.1 µM.
Sequence of UniProt P43250 (P43250 whole entry, looked up): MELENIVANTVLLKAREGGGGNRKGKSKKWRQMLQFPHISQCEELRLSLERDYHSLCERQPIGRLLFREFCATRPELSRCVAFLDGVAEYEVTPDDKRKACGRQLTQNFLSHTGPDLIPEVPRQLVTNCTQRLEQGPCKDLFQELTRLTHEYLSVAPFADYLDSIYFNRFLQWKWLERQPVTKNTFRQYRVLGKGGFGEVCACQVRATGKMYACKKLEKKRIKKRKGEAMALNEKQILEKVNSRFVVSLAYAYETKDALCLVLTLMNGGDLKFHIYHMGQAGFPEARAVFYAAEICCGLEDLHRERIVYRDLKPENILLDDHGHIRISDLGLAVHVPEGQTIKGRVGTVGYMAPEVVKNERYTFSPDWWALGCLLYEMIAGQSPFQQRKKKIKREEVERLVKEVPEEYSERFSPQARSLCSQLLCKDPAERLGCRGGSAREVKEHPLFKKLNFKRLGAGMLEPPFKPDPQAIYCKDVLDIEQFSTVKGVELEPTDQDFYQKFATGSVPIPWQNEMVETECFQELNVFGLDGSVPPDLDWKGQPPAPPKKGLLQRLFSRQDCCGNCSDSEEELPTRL
Experiment [8] has the same target. The note with it: at 1 µM.
The target of experiment [9] is T1, Rhodopsin kinase GRK7 (Homo sapiens) (UniProt Q8WTQ7).
T1 sequence (whole entry): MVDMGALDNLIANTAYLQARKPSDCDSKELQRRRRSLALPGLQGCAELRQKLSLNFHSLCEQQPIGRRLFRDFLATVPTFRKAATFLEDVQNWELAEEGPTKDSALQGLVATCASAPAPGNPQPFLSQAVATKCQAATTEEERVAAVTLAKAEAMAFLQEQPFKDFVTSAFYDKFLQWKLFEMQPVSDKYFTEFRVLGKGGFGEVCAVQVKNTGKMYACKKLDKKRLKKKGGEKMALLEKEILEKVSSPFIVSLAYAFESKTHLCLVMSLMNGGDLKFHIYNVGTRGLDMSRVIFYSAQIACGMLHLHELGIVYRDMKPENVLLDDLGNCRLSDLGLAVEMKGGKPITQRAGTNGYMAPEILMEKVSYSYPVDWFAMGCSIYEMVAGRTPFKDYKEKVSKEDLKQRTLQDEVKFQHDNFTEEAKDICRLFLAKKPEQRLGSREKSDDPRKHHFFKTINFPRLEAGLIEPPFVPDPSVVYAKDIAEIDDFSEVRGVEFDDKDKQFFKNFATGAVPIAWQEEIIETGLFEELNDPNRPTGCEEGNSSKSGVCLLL
The note with it: at 0.1 µM.

The target in experiment [10] is T1, Rhodopsin kinase GRK7 (Homo sapiens). The note with it: at 1 µM.
In experiment [11] the target is Serine/threonine-protein kinase MRCK alpha (Homo sapiens) (UniProt Q5VT25). The settings on record: at 0.1 µM.
Sequence of UniProt Q5VT25 (Q5VT25 whole entry): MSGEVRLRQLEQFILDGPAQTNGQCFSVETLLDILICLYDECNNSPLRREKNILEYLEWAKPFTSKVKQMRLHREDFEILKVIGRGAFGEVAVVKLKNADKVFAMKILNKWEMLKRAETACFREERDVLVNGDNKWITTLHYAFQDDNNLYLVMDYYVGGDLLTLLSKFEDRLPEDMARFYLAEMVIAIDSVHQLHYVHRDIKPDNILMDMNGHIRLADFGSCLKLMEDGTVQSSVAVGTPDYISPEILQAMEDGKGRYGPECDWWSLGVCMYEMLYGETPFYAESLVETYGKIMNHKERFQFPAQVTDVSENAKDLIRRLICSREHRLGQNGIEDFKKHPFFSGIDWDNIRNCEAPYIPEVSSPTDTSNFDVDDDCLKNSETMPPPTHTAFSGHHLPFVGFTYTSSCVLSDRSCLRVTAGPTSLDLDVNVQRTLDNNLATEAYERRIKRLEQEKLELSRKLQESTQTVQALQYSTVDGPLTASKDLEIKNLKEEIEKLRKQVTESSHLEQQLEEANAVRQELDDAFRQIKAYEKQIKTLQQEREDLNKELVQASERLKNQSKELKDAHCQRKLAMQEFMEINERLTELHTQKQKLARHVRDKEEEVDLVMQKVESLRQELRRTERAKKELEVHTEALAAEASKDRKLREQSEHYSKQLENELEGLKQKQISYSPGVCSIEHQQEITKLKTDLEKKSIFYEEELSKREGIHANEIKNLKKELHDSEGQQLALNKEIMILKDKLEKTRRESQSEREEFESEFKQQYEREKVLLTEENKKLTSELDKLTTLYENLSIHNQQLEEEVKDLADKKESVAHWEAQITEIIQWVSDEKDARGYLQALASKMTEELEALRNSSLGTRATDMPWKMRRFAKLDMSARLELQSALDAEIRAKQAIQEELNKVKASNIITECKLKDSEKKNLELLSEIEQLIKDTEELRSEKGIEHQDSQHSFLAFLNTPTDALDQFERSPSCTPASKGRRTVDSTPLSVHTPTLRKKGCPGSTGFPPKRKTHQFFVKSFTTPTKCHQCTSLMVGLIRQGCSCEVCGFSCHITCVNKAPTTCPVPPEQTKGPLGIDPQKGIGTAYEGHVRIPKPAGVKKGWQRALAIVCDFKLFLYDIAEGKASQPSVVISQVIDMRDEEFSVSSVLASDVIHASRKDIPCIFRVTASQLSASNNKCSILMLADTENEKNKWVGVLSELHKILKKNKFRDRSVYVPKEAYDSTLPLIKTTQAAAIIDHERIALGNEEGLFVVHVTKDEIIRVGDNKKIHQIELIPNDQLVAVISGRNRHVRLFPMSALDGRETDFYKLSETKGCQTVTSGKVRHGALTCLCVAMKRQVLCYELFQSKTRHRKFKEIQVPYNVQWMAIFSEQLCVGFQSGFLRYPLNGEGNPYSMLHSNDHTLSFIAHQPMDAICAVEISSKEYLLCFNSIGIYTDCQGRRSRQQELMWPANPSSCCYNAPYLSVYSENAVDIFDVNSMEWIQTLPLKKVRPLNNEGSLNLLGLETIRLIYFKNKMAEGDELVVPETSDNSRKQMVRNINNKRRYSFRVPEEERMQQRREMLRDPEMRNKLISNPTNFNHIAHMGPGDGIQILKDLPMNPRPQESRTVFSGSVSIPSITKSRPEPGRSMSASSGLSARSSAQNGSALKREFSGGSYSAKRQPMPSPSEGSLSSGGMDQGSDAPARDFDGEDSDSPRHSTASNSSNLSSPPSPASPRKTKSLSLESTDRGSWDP
Experiment [12] has the same target. The note with it: at 1 µM.
The target of experiment [13] is Serine/threonine-protein kinase MRCK beta (Homo sapiens) (UniProt Q9Y5S2). The settings on record: at 0.1 µM.
For experiment [14] the target is unchanged. The settings on record: at 1 µM.
For experiment [15], the target named is Ribosomal protein S6 kinase alpha-5 (Homo sapiens) (UniProt O75582). The settings on record: at 0.1 µM.
Experiment [16] has the same target. The settings on record: at 1 µM.
Experiment [17] has as its target Ribosomal protein S6 kinase alpha-4 (Homo sapiens) (UniProt O75676). The note with it: at 0.1 µM.
Sequence of UniProt O75676 (O75676 whole entry, looked up): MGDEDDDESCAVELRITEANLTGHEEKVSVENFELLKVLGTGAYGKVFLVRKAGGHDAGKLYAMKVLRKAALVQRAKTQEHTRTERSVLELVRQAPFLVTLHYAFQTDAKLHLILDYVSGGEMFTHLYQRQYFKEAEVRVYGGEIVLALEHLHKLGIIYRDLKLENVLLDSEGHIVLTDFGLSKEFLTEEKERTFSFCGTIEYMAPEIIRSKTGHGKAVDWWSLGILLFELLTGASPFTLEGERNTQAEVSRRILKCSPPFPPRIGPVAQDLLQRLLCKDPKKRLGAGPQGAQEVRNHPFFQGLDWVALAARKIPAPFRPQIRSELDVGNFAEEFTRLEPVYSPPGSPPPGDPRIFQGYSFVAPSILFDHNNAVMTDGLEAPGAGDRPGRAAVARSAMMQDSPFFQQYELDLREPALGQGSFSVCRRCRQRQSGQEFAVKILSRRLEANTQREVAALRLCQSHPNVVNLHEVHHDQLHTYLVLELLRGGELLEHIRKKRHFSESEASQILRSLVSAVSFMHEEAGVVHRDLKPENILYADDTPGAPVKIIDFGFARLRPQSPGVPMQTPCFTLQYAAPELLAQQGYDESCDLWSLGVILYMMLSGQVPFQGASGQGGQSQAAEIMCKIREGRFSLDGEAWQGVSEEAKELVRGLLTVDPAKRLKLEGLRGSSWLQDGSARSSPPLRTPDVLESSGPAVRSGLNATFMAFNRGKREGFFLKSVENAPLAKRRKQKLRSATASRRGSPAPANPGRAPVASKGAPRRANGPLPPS
Experiment [18] shares this target. The settings on record: at 1 µM.
For experiment [19], the target named is Ribosomal protein S6 kinase beta-1 (Homo sapiens) (UniProt P23443). The note with it: at 0.1 µM.
Sequence of UniProt P23443 (P23443 whole entry, looked up): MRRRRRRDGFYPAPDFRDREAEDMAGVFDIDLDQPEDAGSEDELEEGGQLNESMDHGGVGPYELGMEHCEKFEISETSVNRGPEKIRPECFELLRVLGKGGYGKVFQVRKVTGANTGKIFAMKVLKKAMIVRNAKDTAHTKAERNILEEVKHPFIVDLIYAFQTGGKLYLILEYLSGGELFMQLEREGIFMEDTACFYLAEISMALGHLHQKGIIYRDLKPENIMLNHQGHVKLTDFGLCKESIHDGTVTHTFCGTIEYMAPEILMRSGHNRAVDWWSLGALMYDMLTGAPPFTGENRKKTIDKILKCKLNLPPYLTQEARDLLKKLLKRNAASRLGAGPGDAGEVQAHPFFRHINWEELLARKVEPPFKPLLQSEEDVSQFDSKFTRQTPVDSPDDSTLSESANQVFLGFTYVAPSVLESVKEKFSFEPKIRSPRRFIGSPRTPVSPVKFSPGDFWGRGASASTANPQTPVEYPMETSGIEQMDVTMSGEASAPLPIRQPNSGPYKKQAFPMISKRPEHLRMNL
Experiment [20] shares this target. The settings on record: at 1 µM.

Sequence of UniProt P31749 (P31749 whole entry): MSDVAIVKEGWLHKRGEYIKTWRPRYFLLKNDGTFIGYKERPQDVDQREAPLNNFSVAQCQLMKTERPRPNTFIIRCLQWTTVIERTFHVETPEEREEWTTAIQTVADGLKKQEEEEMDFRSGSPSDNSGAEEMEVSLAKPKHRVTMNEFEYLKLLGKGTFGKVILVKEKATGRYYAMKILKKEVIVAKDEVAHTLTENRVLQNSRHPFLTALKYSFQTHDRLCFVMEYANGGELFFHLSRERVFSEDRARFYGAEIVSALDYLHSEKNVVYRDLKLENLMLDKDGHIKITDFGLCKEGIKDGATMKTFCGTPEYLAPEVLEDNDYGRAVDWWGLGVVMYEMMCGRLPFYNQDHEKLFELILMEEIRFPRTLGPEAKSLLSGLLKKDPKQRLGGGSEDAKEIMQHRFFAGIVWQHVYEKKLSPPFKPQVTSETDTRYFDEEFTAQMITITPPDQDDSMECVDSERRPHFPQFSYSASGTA

As a reminder, the inhibition is the drop in the measured response relative to a control, in per cent. As for `COc1ccccc1C1=C(Nc2ccccc2)C(=O)NC1=O`, the inhibition in experiment [1] stood at 0.17%; in experiment [2], 1.46%; in experiment [3], 2.59%; in [4], 2.36%; in [5], 1.17%; in [6], 3.11%. For the same compound, the inhibition is 4.81% in experiment [7]; 6.4% in [8]; 1.66% in experiment [9]; -0.25% in [10]; 1.35% in experiment [11]; 17.1% in [12]. The inhibition was 0.99% in [13]; 6.81% in experiment [14]; -3.39% in experiment [15]; -2.33% in experiment [16]; 2.05% in experiment [17]; 3.19% in [18]. Also, the figures for the inhibition in [19] and in experiment [20] were 0.95% and 2.68%, respectively.

As to `Fc1ccc(Oc2nccc(-c3c(-c4ccc(F)cc4)ncn3C3CCNCC3)n2)cc1`, the inhibition was -2.29% in experiment [1]; -1.29% in experiment [2]; -2.94% in experiment [3]; -3.14% in experiment [4]; -2.48% in experiment [5]; 0.71% in experiment [6]. Besides, the inhibition in [7] was determined as 4.21%; in experiment [8], 7.29%; in experiment [9], 10.4%; in [10], 0.76%; in [11], 3.57%; in experiment [12], 5.65%. Further, the inhibition in experiment [13] is 0.07%; in experiment [14], 1.76%; in experiment [15] it was 2.27%; in experiment [16], 2.83%; in experiment [17], 1.95%; in [18] it was 4.12%. The inhibition in experiment [19] turned out to be 2.16%; in experiment [20], 3.8%.

For the compound `NC(=O)CCc1ccccc1Oc1nccc(-c2c(-c3ccc(F)cc3)ncn2C2CCNCC2)n1`, the inhibition is -2.24% in [1]; -1.9% in experiment [2]; -3.59% in experiment [3]; -1.1% in experiment [4]; -1.94% in experiment [5]; 0% in experiment [6]. For the same compound, the inhibition in experiment [7] was -3.18%; in experiment [8], 0.59%; in experiment [9] it was 2.82%; in experiment [11] it was -0.52%; in [12] it was -0.89%; in [13], 0.43%. For the same compound, the inhibition in experiment [14] was -0.31%; in experiment [15], -0.92%; in experiment [16] it was -0.96%; in [17], -1.62%; in [18], -1.85%; in [19], -1.25%. Further, the inhibition in [20] is -0.66%.

Regarding `Fc1ccc(-c2ncn(C3CCNCC3)c2-c2ccnc(Oc3cccc(F)c3)n2)cc1`, the inhibition in experiment [1] stood at 0.89%; in experiment [2], 0.08%; in experiment [3] it was 0.95%; in experiment [4], 2.49%; in experiment [5], 1.11%; in [6] it was 6.35%. The inhibition was 5.11% in [7]; 4.97% in [8]; 9.74% in [9]; 1% in experiment [10]; 3.46% in experiment [11]; 5.27% in experiment [12]. For the same compound, the inhibition is 0.49% in [13]; 3.94% in [14]; -2.45% in [15]; -3.65% in experiment [16]; 4.21% in experiment [17]; 3.15% in [19]. In experiment [20], the inhibition was determined as 4.35%.

Regarding `CC(C)(C)c1ccc(Oc2nccc(-c3c(-c4ccc(F)cc4)ncn3C3CCNCC3)n2)cc1`, the inhibition in experiment [1] turned out to be 1.09%; in [2] it was 0.59%; in [3], 1.29%; in experiment [4], 2.02%; in experiment [5], 0.81%; in experiment [6], 3.88%. For the same compound, the inhibition is 2.23% in [7]; 4.45% in experiment [8]; 8.22% in [9]; 0.89% in experiment [10]; -2.99% in experiment [11]; 1.46% in experiment [12]. In addition, the inhibition in experiment [13] is -0.83%; in [14], 0.64%; in [15] it was 0.69%; in experiment [16], -1.82%; in [17] it was 2.15%; in experiment [18], 1.91%. Further, the inhibition was 1.65% in [19] and 1.56% in experiment [20].

Regarding `O=C1NC(=O)C(c2ccccc2Cl)=C1Nc1cc(Cl)c(O)c(Cl)c1`, the inhibition in experiment [1] worked out at 0.78%; in experiment [2], 0.48%; in experiment [3] it was 0.71%; in experiment [4], 1.42%; in [5] it was 0.46%; in experiment [6], 1%. For the same compound, the inhibition was 5.36% in experiment [7]; 12% in experiment [8]; 1.91% in [9]; 3.62% in experiment [10]; -0.61% in experiment [11]; 1.91% in experiment [12]. The inhibition in [13] is -0.85%; in experiment [14], 0.79%; in [15] it was 2.49%; in [16] it was 4.05%; in experiment [17], 1.22%; in experiment [18], 2.51%. The inhibition was -0.16% in experiment [19] and 0.28% in [20].

With `Cc1cccc(Oc2nccc(-c3c(-c4ccc(F)cc4)ncn3C3CCNCC3)n2)c1C`, the inhibition came to 0.36% in experiment [1]; 0.41% in experiment [2]; 1.92% in [3]; 3.53% in [4]; 1.48% in experiment [5]; 1.35% in experiment [6]. The inhibition in experiment [7] is -0.55%; in [8], 1.29%; in experiment [9] it was 8.84%; in [10] it was 3%; in experiment [11] it was -2.66%; in experiment [12], 2.29%. The inhibition in experiment [13] was -0.78%; in experiment [14], -0.41%; in experiment [15] it was 8.66%; in [16], 7.4%; in experiment [17], 2.54%; in [18], 2.03%. For the same compound, the inhibition in experiment [19] turned out to be 1.2%; in experiment [20], 1.34%.
